Test results reported in the supplement of paper PMC10600219.
Counter-ions that a name gives are not always drawn. The full ranking holds about 2,800 compounds; the median of “cell viability relative to vehicle” is about 0.98, and the lowest 2% start at about 0.45. This is one part of the list.

What follows are compounds tested on NCI-H2228 alectinib-DTP (assay: cell viability relative to vehicle (fraction of vehicle); NCI-H2228 is an ALK-positive lung cancer line and DTP means drug-tolerant persister; higher = less growth inhibition). Conditions: 100 nM; treatment time 6 days.
In short: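 Values give cell viability as a fraction of vehicle-treated cells. Parental and drug-tolerant persister NCI-H2228 cells (persisters made with 1000 nM of a targeted drug for 13 days) were exposed in 384-well plates to the 3114-agent TargetMol anti-cancer compound library at 100 nM, with DMSO as vehicle. ATP was then read after 6 days by the CellTiter-Glo 3D Cell Viability Assay.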
With `O=C1Cc2cc(CCN3CCN(c4nsc5ccccc45)CC3)c(Cl)cc2N1` [Ziprasidone hydrochloride monohydrate] the cell viability was 1.13. Work on `CC(C)/N=c1\cc2n(-c3ccc(Cl)cc3)c3ccccc3nc-2cc1Nc1ccc(Cl)cc1` [Clofazimine] yielded a cell viability of 1.14. `COc1cc(O)cc(CCc2ccc(O)c(OC)c2)c1` [Gigantol] gave a cell viability of 0.85. `CN(CCOc1ccc(CC2SC(=O)NC2=O)cc1)c1ccccn1` (stereo not drawn) [Rosiglitazone] showed a cell viability of 0.948. `CN(CCOc1ccc(CC2SC(=O)NC2=O)cc1)c1ccccn1` (stereo not drawn) [Rosiglitazone maleate] was tested, and the cell viability was 0.953. With `CN(C)CC[C@@H](c1ccc(Cl)cc1)c1ccccn1` [Dexchlorpheniramine Maleate] the cell viability was 0.918. `O=C(NCC(=O)N1CCCC1)Nc1ccc2cnccc2c1` gave a cell viability of 1.07. `COc1cc(OC)cc(C(=O)Nc2ccc(Cl)c(-c3nc4ccc(N(C)C)cc4[nH]3)c2)c1` [HhAntag] was tested, and the cell viability was 0.952. With `C[C@@H]1CC[C@@]2(OC1)O[C@H]1C[C@H]3[C@@H]4CC=C5C[C@@H](O)C[C@@H](O)[C@]5(C)[C@H]4CC[C@]3(C)[C@H]1[C@@H]2C` [Ruscogenin] the cell viability was 1.06. Work on `COC(=O)C(N)CS` [L-Cysteine methyl ester hydrochloride(Acdrile)] yielded a cell viability of 1.02. With `Cc1ccc(NS(=O)(=O)c2cccc(C#N)c2)c2[nH]cc(C#N)c12` the cell viability was 0.669. `CS(=O)(=O)Nc1ccc([N+](=O)[O-])cc1OC1CCCCC1` showed a cell viability of 1.12. Work on `Nc1cc(-c2ccncc2)c[nH]c1=O` [Amrinone] yielded a cell viability of 1.02. In the case of `CN(C)CCOC(=O)COc1ccc(Cl)cc1` [Meclofenoxate hydrochloride], the cell viability is reported as 0.936. For `Brc1c(NC2=NCCN2)ccc2nccnc12` [Brimonidine Tartrate], the cell viability was 0.846. For `N=C(N)N/N=C/c1c(Cl)cccc1Cl` [Guanabenz Acetate], the cell viability was 0.881. `C[C@H]1O[C@@H](O[C@H]2CC[C@@]3(C)[C@@H](CC[C@]4(C)[C@@H]3C=C[C@]35OC[C@@]6(CCC(C)(C)C[C@H]63)[C@H](O)C[C@]54C)[C@]2(C)CO)[C@H](O)[C@@H](O[C@@H]2O[C@H](CO)[C@@H](O)[C@H](O)[C@H]2O)[C@H]1O` [Saikosaponin D] showed a cell viability of 0.916. `N[C@@H](C(=O)N[C@@H]1C(=O)N2C(C(=O)O)=C(Cl)CS[C@H]12)c1ccccc1` [Cefaclor monohydrate] gave a cell viability of 1.21. `COc1ccc(C(=O)NCc2ccc(OCCN(C)C)cc2)cc1OC` [Itopride hydrochloride] was tested, and the cell viability was 0.975. Work on `COC[C@H](NC(=O)c1cnc(C)s1)C(=O)N[C@@H](COC)C(=O)N[C@@H](Cc1ccccc1)C(=O)[C@@]1(C)CO1` [Oprozomib] yielded a cell viability of 0.371. Work on `CCCCC(=O)N(Cc1ccc(-c2ccccc2-c2nnn[nH]2)cc1)[C@H](C(=O)O)C(C)C.CCOC(=O)[C@H](C)C[C@@H](Cc1ccc(-c2ccccc2)cc1)NC(=O)CCC(=O)O` yielded a cell viability of 1.03. `C=CC(=O)Nc1cc(Nc2nccc(-n3cc(CN(C)C)c(-c4ccccc4)n3)n2)c(OC)cc1N1CCOCC1` [Lazertinib] was tested, and the cell viability was 0.832. `Cc1cc(Nc2nc(N[C@@H](C)c3ncc(F)cn3)ncc2Cl)[nH]n1` was tested, and the cell viability was 0.841. Work on `C[C@@H]1O[C@@H](Oc2cc(O)c3c(=O)c(O[C@@H]4O[C@@H](C)[C@H](O)[C@@H](O)[C@H]4O)c(-c4ccc(O)cc4)oc3c2)[C@H](O)[C@H](O)[C@H]1O` [Kaempferitrin] yielded a cell viability of 1.04. For `S=C(N/N=C1/CCCc2cccnc21)N1CCN(c2ccccn2)CC1`, the cell viability was 1.09. Compound `COc1ccc(-c2cc(C(F)F)nn2-c2ccc(S(N)(=O)=O)cc2)cc1F` [Deracoxib] has a cell viability of 1.07. `O=C(O)CC1CC(c2ccccc2)=NO1` (stereo not drawn) gave a cell viability of 0.932. Work on `CCN(c1cc(-c2ccc(CN3CCOCC3)cc2)cc(C(=O)NCc2c(C)cc(C)[nH]c2=O)c1C)C1CCOCC1` yielded a cell viability of 1.08. In the case of `NC(N)=O`, the cell viability is reported as 1.1. `CC1=C(CC(=O)O)c2cc(F)ccc2/C1=C\c1ccc([S+](C)[O-])cc1` (stereo not drawn) [Sulindac] showed a cell viability of 1.07. `C=CC(=O)Nc1ccc2ncnc(Nc3ccc(OCc4cccc(F)c4)c(Cl)c3)c2c1` was tested, and the cell viability was 0.866. With `C=CC(=O)N1CCC[C@@H](n2nc(-c3ccc(Oc4ccccc4)cc3)c3c(N)ncnc32)C1` [Ibrutinib] the cell viability was 0.741. `O=C1N=C(N2CCOCC2)CN1c1ccc(Cl)cc1` showed a cell viability of 0.919. `O=C(O)c1ccccc1C(=O)Nc1ccc(-c2ccccc2)cc1` [Kartogenin] gave a cell viability of 0.96. Compound `C[C@@H]1CN(CC(=O)Nc2ccc3c(c2)Cc2cccc(-c4cc(=O)cc(N5CCOCC5)o4)c2S3)C[C@H](C)O1` has a cell viability of 0.961. For `O=C(/C=C/c1ccc(O)cc1)C1=C(O)C(O)([C@@H]2O[C@H](CO)[C@@H](O)[C@H](O)[C@H]2O)C(O)=C([C@@H]2O[C@H](CO)[C@@H](O)[C@H](O)[C@H]2O)C1=O` (stereo partly drawn) [Hydroxysafflor yellow A], the cell viability was 1.08. For `O=C1CC(c2c[nH]c3ccc(F)cc23)C(=O)N1` (stereo not drawn), the cell viability was 1.14. Compound `CCc1cccc2c3c([nH]c12)C(CC)(CC(=O)O)OCC3` (stereo not drawn) [Etodolac] has a cell viability of 0.91. Work on `Cc1noc(NS(=O)(=O)c2ccc(N)cc2)c1C` [Sulfisoxazole] yielded a cell viability of 1.07. `Cc1nc(N)sc1-c1ccnc(Nc2ccc(N3CCOCC3)cc2)n1` was tested, and the cell viability was 0.942. In the case of `C[C@]12CC[C@@H]3c4ccc(O)cc4CC[C@H]3[C@@H]1C[C@@H](O)[C@@H]2O` [Estriol], the cell viability is reported as 0.855. Compound `CNC(=O)[C@H](Cc1ccccc1)NC(=O)[C@H](CC(C)C)[C@H](CSc1cccs1)C(=O)NO` [Batimastat] has a cell viability of 1.15. In the case of `CCOC(=O)[C@H](CCc1ccccc1)N[C@@H](C)C(=O)N1CCC[C@H]1C(=O)O` [Enalapril Maleate], the cell viability is reported as 0.751. `c1cc(Nc2cc(C3CC3)[nH]n2)nc(Nc2ccc3nc[nH]c3c2)n1` gave a cell viability of 0.696. `COc1cc2ncnc(Nc3ccc(O)cc3)c2cc1OC` gave a cell viability of 0.992. `CC(C)=CCC/C(C)=C/CC/C(C)=C/CC/C(C)=C/CC1=C(C)C(=O)c2ccccc2C1=O` [Menatetrenone] was tested, and the cell viability was 0.832. `O=C1/C(=C2\Nc3ccccc3C2=O)Nc2ccccc21` [Indigo] gave a cell viability of 1.05. In the case of `COc1ccc(-c2ccccc2)cc1NS(=O)(=O)c1cc(Cl)cc(Cl)c1O`, the cell viability is reported as 0.883. Work on `COc1ccc2[nH]c([S+]([O-])Cc3ncc(C)c(OC)c3C)nc2c1` (stereo not drawn) [Omeprazole] yielded a cell viability of 0.981. With `O=C(Nc1ccc(-c2ccnc(Nc3ccc(N4CCOCC4)cc3)n2)cc1)C1CCCN1` (stereo not drawn) the cell viability was 0.934. With `CCS(=O)(=O)Nc1ccc2c(c1)/C(=C(/Nc1ccc(CN3CCCCC3)cc1)c1ccccc1)C(=O)N2` [Hesperadin] the cell viability was 0.823. For `O=S(=O)(O)CCCS(=O)(=O)O` [Eprodisate disodium], the cell viability was 1.06. `CC(Nc1nc(N2CCCC2)nc2ccccc12)c1ccccc1` (stereo not drawn) [Importazole] showed a cell viability of 1.12. `COc1ccc(-c2cc(=O)c3c(O)cc(O[C@@H]4O[C@H](CO[C@@H]5O[C@@H](C)[C@H](O)[C@@H](O)[C@H]5O)[C@@H](O)[C@H](O)[C@H]4O)cc3o2)cc1` [Linarin] gave a cell viability of 0.937. `CCCCCCCCOC(=O)c1cc(O)c(O)c(O)c1` [Octyl gallate] was tested, and the cell viability was 1.05. `CC(=O)Nc1ccc(O)cc1` [Acetaminophen] was tested, and the cell viability was 1.09. `Nc1cccc2c1CN(C1CCC(=O)NC1=O)C2=O` (stereo not drawn) [Lenalidomide] showed a cell viability of 0.897. With `NC(=S)N/N=C/c1ncccc1N` [Triapine] the cell viability was 1.03. `C=CC1=C(C(=O)O)N2C(=O)[C@@H](NC(=O)/C(=N\OCC(=O)O)c3csc(N)n3)[C@H]2SC1` [Cefixime] gave a cell viability of 0.855. In the case of `OCCOCCN1CCN(C(c2ccccc2)c2ccc(Cl)cc2)CC1` (stereo not drawn) [Hydroxyzine Pamoate], the cell viability is reported as 1.06. With `OCCOCCN1CCN(C(c2ccccc2)c2ccc(Cl)cc2)CC1` (stereo not drawn) [Hydroxyzine dihydrochloride] the cell viability was 0.846. Compound `O=C(O)c1ccc2c3c1cccc3c(=O)n1c3ccccc3nc21` [STO-609 acetate] has a cell viability of 1.03. With `COc1ccc(CNC(=O)Nc2ncc([N+](=O)[O-])s2)cc1` the cell viability was 0.764. For `O=C(NS(=O)(=O)c1ccc(Br)s1)c1ccc(Cl)cc1Cl` [Tasisulam], the cell viability was 0.922. Work on `C/C(=N\NC(=O)c1cccc(S(=O)(=O)N2CCOCC2)c1)c1cc(Cl)ccc1O` yielded a cell viability of 0.84. For `O=C(Nc1ccc(C(O)(C(F)(F)F)C(F)(F)F)cc1)c1ccccc1Cl`, the cell viability was 0.929. `COc1c(OCCCN2CCOCC2)ccc2c1N=C(NC(=O)c1cnc(N)nc1)N1CCN=C21` [Copanlisib] gave a cell viability of 0.38. `O=NN(CCCl)C(=O)NC1CCCCC1` [Lomustine] showed a cell viability of 0.778. `OC1CCC(Oc2cccc3cnc(Nc4ccc5nc[nH]c5c4)nc23)CC1` (stereo not drawn) showed a cell viability of 1.02. `NC(Cc1ccccc1O)C(=O)O` (racemic) [DL-O-Tyrosine] gave a cell viability of 0.88. Work on `Cc1cccc(CN2CCN(C(c3ccccc3)c3ccc(Cl)cc3)CC2)c1` (stereo not drawn) [Meclizine dihydrochloride] yielded a cell viability of 0.951. `COc1cnc(NS(=O)(=O)c2ccc(N)cc2)nc1` [Sulfameter] was tested, and the cell viability was 1.08. `O=C(O)CCn1c2c(c3ccccc31)C[C@H](NS(=O)(=O)c1ccc(F)cc1)CC2` [Ramatroban] showed a cell viability of 0.887. With `O=C(O)CCC(=O)Nc1ccc(S(=O)(=O)Nc2nccs2)cc1` [Succinylsulfathiazole] the cell viability was 1.19. For `Cc1c[nH]c2nc(Nc3ccc(N4CCN(C)CC4)c(F)c3)nc(-c3cccc(CC#N)c3)c12`, the cell viability was 0.981. With `CN1CCC(COc2cnc(-c3cccc(Cn4nc(-c5cccc(C#N)c5)ccc4=O)c3)nc2)CC1` [Tepotinib] the cell viability was 1.05. In the case of `CC(C)c1cc(C(=O)N2Cc3ccc(CN4CCN(C)CC4)cc3C2)c(O)cc1O` [Onalespib], the cell viability is reported as 0.793. For `CCOC(=O)C1=C[C@]2(CC)CCCN3CCc4c(n1c1ccccc41)[C@@H]32` [Vinpocetine], the cell viability was 1.16.
